# Results reported in PubChem BioAssay AID588795 (National Center for Advancing Translational Sciences (NCATS), 2011).
# Hit rate of the full screen: of about 390,000 compounds, about 1,400 (0.36%) were called active. Inconclusive means that the source gave no clear call. Such entries were picked first, then a sample of the others. Calls follow the shape of the dose curve; as a rule, active = well fitted inhibition curve with a large enough effect; inconclusive = small, poorly fitted or top-dose-only effect; inactive = no such curve, though single readings can be large or run the other way. Potencies of inconclusive entries are doubtful fits and often do not repeat.
# Biological target: Flap endonuclease 1 (Homo sapiens) (UniProt P39748)
# Assay: qHTS Assay for the Inhibitors of Human Flap endonuclease 1 (FEN1). Also: nearly all actives have a fitted effect of over 65% in size.
# Details: Recombinant FEN1 flap cleavage, fluorescence, 15 min; series mostly up to 114 µM; activity change, negative = inhibition: at the top concentration
# How it was run: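 Read-out was taken twice, immediately and after 15 min, following addition of 50 nM substrate to 10 nM FEN1 that had sat with test compound for 15 min at room temperature. Curves came from a four-parameter Hill model.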
# % is scaled to controls: 0 for no effect and ±100 for the full control effect; potency is read from the fitted curve at half-maximal effect; tags tell the direction and shape of the fitted curve.
# Sequence of UniProt P39748 (P39748 whole entry, looked up): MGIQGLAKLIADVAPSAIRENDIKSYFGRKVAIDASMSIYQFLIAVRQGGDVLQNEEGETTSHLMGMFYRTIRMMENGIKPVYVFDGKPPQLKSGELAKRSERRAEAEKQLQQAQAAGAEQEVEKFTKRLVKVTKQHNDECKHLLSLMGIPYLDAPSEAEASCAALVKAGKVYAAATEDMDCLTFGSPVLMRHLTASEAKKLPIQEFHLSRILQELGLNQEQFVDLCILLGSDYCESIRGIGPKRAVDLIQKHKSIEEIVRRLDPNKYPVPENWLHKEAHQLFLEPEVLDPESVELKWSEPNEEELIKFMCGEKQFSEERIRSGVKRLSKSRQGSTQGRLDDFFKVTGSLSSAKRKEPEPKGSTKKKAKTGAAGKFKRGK
SMILES,"activity change, negative = inhibition",Potency
COCCCn1c2nc3ccccc3nc2c2c(=O)n(Cc3ccc(Cl)cc3)cnc21,inactive: 9.42%,
O=S(=O)(Nc1cccc(-c2ccc(N3CCCCC3)nn2)c1)c1cccs1,inactive: -13.9%,
Cc1cc(NCCCN(C)C)n2c(nc3ccccc32)c1C#N,,"inconclusive: 70.8 µM [inhibitor, partial curve, poor fit]"
COC(=O)c1scc(S(C)(=O)=O)c1-n1cccc1,inactive: 9.32%,
COc1ccccc1NC(=O)CSc1nc2c(oc3ccccc32)c(=O)n1-c1ccc(C)cc1,inactive: -3.17%,
CCOC(=O)c1ccccc1NC(=O)CN(c1ccccc1OC)S(=O)(=O)c1ccc(C)cc1,inactive: 7.65%,
O=C(/C=C/c1cn(CC(O)CN2CCCCCC2)c2ccccc12)c1ccccc1 (configuration not stated),,"inconclusive: 79.4 µM [inhibitor, single point]"
COc1cc(/C=C/c2nc(C#N)c(NC3CCCCC3)o2)cc(OC)c1OC,,"inconclusive: 44.7 µM [inhibitor, partial curve, poor fit]"
CCCCN1CCc2c1nc1ccc(Br)cc1c2N,,"inconclusive: 56.2 µM [inhibitor, partial curve]"
Cc1[nH]c(-c2ccc(F)cc2)cc1C(=O)N1CCN(c2ccccc2)CC1,,"inconclusive: 20 µM [inhibitor, partial curve, poor fit]"
CCOC(=O)c1sc(N=NC2=C(O)CCCC2=O)c(C(=O)OCC)c1C,,"inconclusive: 89.1 µM [inhibitor, single point]"
CC(=O)NC(c1ccc(Cl)cc1)c1ccc2cccnc2c1O (configuration not stated),,"inconclusive: 14.1 µM [inhibitor, partial curve, poor fit]"
COc1cccc(/C=N/c2sc(Cc3ccccc3)c(C)c2C(N)=O)c1O,,"inconclusive: 100 µM [inhibitor, partial curve, poor fit]"
O=C(Cn1c(=O)ccn(Cc2ccccc2)c1=O)Nc1cccc(S(=O)(=O)N2CCOCC2)c1,inactive: -5.8%,
CCCCCCn1c(COc2ccccc2F)nnc1SCC(=O)N1c2ccccc2NC(=O)C1(C)C,,"inconclusive: 56.2 µM [inhibitor, partial curve, poor fit]"
CCC(C(=O)Nc1ccccc1C(=O)OC)n1c(C)c2cnn(-c3ccccc3)c(=O)c2c1C (configuration not stated),,"inconclusive: 89.1 µM [inhibitor, single point]"
Nc1ccc2nc(-c3cccnc3)[nH]c2c1,,"inconclusive: 70.8 µM [inhibitor, partial curve]"
CCOc1ccccc1Oc1cn[nH]c1-c1ccc(OC)cc1O,,"inconclusive: 89.1 µM [inhibitor, partial curve, poor fit]"
CCOc1cc(/C=C(\C#N)c2[nH]nc(N)c2C#N)ccc1O,,"inconclusive: 44.7 µM [inhibitor, partial curve, poor fit]"
NNC(=O)c1cccn(Cc2ccc(Cl)cc2Cl)c1=O,inactive: 12.2%,
Cc1ccc(C(=C2C3C=CC2C2C(=O)NC(=O)C32)c2ccc(C)cc2)cc1 (configuration not stated),,"inconclusive: 56.2 µM [inhibitor, partial curve, poor fit]"

SMILES,"activity change, negative = inhibition",Potency
CCCCCC(=O)N1CC2(CC(c3cccc(NC(=O)CC(c4ccccc4)c4ccccc4)c3)=NO2)C[C@@H]1C(N)=O (some centres not stated),,"inconclusive: 56.2 µM [inhibitor, partial curve, poor fit]"
CCn1c(=O)cc(OCC(=O)O)c2ccccc21,inactive: 6.02%,
O=C1c2oc3ccccc3c(=O)c2C(c2ccc(Br)cc2)N1c1ccccn1 (configuration not stated),inactive: -9.95%,
Cc1ccc(NC(=O)CN2CCC3(O)CCCCC3C2c2ccc3c(c2)OCO3)c(C)c1 (configuration not stated),,"inconclusive: 89.1 µM [inhibitor, partial curve, poor fit]"
Cc1ccc(N=C2NC(=O)/C(=C/C=C/c3ccco3)S2)cc1,,active: 50.1 µM
Cc1cccc(C)c1OCC(O)CN1CCC(CN2C(=O)c3cccc4cccc(c34)C2=O)CC1 (configuration not stated),,"inconclusive: 39.8 µM [inhibitor, partial curve]"
O=C(COc1ccc(Br)cc1Cl)NC(=O)NC1CCCC1,,"inconclusive: 79.4 µM [inhibitor, single point]"
O=c1c2c(-c3ccccc3)csc2nc2c3ccccc3c(NCCN3CCOCC3)nn12,,active: 39.8 µM
CSc1nc(NCCN(C)C)c2sc3nc(-c4ccco4)c4c(c3c2n1)CCC4,,"inconclusive: 50.1 µM [inhibitor, partial curve]"
COc1cc2nc(Cl)nc(NC3CCN(C)CC3)c2cc1OC,,"inconclusive: 44.7 µM [inhibitor, partial curve]"
C#CCn1c(COc2ccccc2C)nc2ccccc21,,"inconclusive: 28.2 µM [inhibitor, partial curve, poor fit]"
CCOC(=O)N1CCN(C(=O)C2CCN(C(=O)c3ccccc3C)CC2)CC1,,"inconclusive: 89.1 µM [inhibitor, partial curve, poor fit]"
O=C(O)c1cc(Nc2cc(Cl)c3nonc3c2[N+](=O)[O-])ccc1O,,"inconclusive: 35.5 µM [inhibitor, single point]"
COCCNC(=O)C(=O)N/N=C/c1cccs1,,"inconclusive: 22.4 µM [inhibitor, full curve]"
C=C(C)CSc1cc(C)c(C#N)c2nc3ccccc3n12,,"inconclusive: 44.7 µM [inhibitor, partial curve]"
CCOc1cc(C2Nc3ccccc3-c3nnc(SCc4ccccc4)nc3O2)ccc1OC (configuration not stated),inactive: -13%,
CCN1C(=O)/C(=C/c2ccc(OCc3ccc(C(=O)O)cc3)c(Cl)c2)NC1=S,inactive: -4.65%,
O=C1CSC(=S)N1/N=C/c1ccc(O)c([N+](=O)[O-])c1,,active: 28.2 µM
CC(=O)c1cccc(NC(=O)c2ccc3c(c2)C(=O)N(Cc2cccnc2)C3=O)c1,,"inconclusive: 44.7 µM [inhibitor, partial curve, poor fit]"
Cc1cccc(-n2c(=O)c3c(c4cc(C)ccc4n3C)n(Cc3ccccc3F)c2=O)c1,,"inconclusive: 3.98 µM [inhibitor, partial curve, poor fit]"
O=C(CCN1CCc2ccccc2C(c2ccccc2)C1)c1ccc2c(c1)OCCO2 (configuration not stated),inactive: 17.3%,
